This is an account of results in paper PMC5359592.

Amino acid sequences for entries named in this document (tags omitted).
UniProt Q15208: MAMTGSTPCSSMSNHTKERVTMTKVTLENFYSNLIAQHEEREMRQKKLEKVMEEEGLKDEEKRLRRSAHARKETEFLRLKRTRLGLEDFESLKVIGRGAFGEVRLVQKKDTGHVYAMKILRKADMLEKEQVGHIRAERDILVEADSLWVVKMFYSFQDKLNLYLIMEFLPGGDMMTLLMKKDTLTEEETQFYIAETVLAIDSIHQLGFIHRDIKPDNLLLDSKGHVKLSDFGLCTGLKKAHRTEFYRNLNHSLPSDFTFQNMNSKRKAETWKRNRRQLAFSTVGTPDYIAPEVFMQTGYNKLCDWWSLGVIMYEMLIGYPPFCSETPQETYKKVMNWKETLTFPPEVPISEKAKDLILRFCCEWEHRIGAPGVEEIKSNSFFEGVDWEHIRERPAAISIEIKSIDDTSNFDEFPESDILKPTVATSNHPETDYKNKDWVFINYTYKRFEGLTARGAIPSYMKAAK
UniProt Q91VJ4: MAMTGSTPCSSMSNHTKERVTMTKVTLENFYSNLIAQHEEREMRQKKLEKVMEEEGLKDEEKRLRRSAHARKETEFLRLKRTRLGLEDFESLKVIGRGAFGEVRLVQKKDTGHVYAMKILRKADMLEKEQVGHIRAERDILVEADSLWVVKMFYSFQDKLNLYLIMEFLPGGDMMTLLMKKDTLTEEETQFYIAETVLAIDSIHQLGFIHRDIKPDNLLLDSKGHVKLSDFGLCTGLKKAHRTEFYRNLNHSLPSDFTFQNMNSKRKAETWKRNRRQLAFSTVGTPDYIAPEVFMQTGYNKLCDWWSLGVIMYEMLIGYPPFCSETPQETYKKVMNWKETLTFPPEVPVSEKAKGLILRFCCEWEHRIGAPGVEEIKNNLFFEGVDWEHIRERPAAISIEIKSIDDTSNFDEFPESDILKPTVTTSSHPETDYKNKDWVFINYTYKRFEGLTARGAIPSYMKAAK

Test [1] deals with T1, Rbm24, endogenous in HL-1 cells (mouse (endogenous in HL-1)) (UniProt D3Z4I3).
T1 sequence: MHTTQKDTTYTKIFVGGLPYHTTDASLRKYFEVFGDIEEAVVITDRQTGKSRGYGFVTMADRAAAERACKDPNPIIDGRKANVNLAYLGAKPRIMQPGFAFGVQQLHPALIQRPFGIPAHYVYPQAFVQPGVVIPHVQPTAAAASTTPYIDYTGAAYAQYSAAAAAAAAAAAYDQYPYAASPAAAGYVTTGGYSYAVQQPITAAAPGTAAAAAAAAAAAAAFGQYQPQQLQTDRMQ
Description: co-IP; anti-Rbm24 immunoprecipitation from HL-1 cells; western blot with anti-Stk38 antibody; both proteins endogenous.

The target of test [2] is Flag-Stk38 (full length) (UniProt Q15208). Description: co-IP; lysates of HEK293 cells transfected with Flag-Stk38 and Myc-Rbm24 (full length or fragments); immunoprecipitated with anti-Flag antibody; western blot.
The target is the same in test [3]. Description: co-IP; lysates of HEK293 cells transfected with Flag-Stk38 and Myc-Rbm24 treated with RNase A, then immunoprecipitated with anti-Flag antibody; western blot. For orientation: In western blotting, separated proteins are transferred to a membrane and probed.

Results are given in words; binding and its absence hold for the method and conditions named. In cells and extracts the contact can be indirect. Some entries that bind do so weakly or less than the wild type. For part of these data: Tags and fused reporters may be left off the sequences shown.

Consider “Stk38, endogenous in HL-1 cells (from UniProt Q91VJ4 1-465) (enzyme)”, for which the binding entry in test [1] is reported as “binds”.

B1: Myc-1-188 fragment of Rbm24 (domain or fragment, UniProt Q9BX46 1-188)
chain: MHTTQKDTTYTKIFVGGLPYHTTDASLRKYFEVFGEIEEAVVITDRQTGKSRGYGFVTMADRAAAERACKDPNPIIDGRKANVNLAYLGAKPRIMQPGFAFGVQQLHPALIQRPFGIPAHYVYPQAFVQPGVVIPHVQPTAAAASTTPYIDYTGAAYAQYSAAAAAAAAAAAYDQYPYAASPAAAGYV
B1: the binding entry with Flag-Stk38 (full length) [2] is “no binding”.

B2: Myc-1-138 fragment of Rbm24 (domain or fragment, UniProt Q9BX46 1-138)
chain: MHTTQKDTTYTKIFVGGLPYHTTDASLRKYFEVFGEIEEAVVITDRQTGKSRGYGFVTMADRAAAERACKDPNPIIDGRKANVNLAYLGAKPRIMQPGFAFGVQQLHPALIQRPFGIPAHYVYPQAFVQPGVVIPHVQ
Take B2: the binding entry with Flag-Stk38 (full length) [2] is “no binding”.

B3: Myc-Rbm24 (full length) (protein, UniProt Q9BX46 1-236)
chain: MHTTQKDTTYTKIFVGGLPYHTTDASLRKYFEVFGEIEEAVVITDRQTGKSRGYGFVTMADRAAAERACKDPNPIIDGRKANVNLAYLGAKPRIMQPGFAFGVQQLHPALIQRPFGIPAHYVYPQAFVQPGVVIPHVQPTAAAASTTPYIDYTGAAYAQYSAAAAAAAAAAAYDQYPYAASPAAAGYVTAGGYGYAVQQPITAAAPGTAAAAAAAAAAAAAFGQYQPQQLQTDRMQ
B3: the binding result with Flag-Stk38 (full length) [2] and with Flag-Stk38 (full length) [3] was “binds” throughout.

B4: Myc-RRM of Rbm24 (domain or fragment, UniProt Q9BX46 11-88)
chain: TKIFVGGLPYHTTDASLRKYFEVFGEIEEAVVITDRQTGKSRGYGFVTMADRAAAERACKDPNPIIDGRKANVNLAYL
In the case of B4, the binding result in the test with Flag-Stk38 (full length) [2] is given as “no binding”.
